# Measured values published in PubChem BioAssay (NCATS).
# Inconclusive results, whose numbers are uncertain, are shown with a selection of clear calls. A potency beside an inconclusive call is a rough fit, not a confirmed value. Active and inactive are the calls of the source. Calls follow the shape of the dose curve; as a rule, active = well fitted cell-killing curve with a large enough effect; inconclusive = small, poorly fitted or top-dose-only effect, or effect the other way; inactive = no such curve, though single readings can be large or run the other way.
# Assay: Viability qHTS for spleen associated tyrosine kinase inhibitor (SYKi) naive MV4-11 cells (AID 1963823); also: nearly all actives have a fitted effect of over 40% in size
# Conditions: MV4-11 AML viability, CellTiter-Glo luminescence, 72 h; series mostly up to 45 µM
# Method in brief: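 Read-out: CellTiter-Glo luminescence. Exposure: 72 hr, 37 C, 5% CO2, 95% humidity. Cells: MV4-11 without SYK inhibitor history, 500/well, qHTS format.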
# Potency is read from the fitted curve at half-maximal effect; tags tell the direction and shape of the fitted curve.
Compound,Potency,viability (% of control)
CNc1ccc2oc(C[C@H]3O[C@@]4(CC[C@H]3C)O[C@H](C(C)C(=O)c3ccc[nH]3)[C@H](C)C[C@H]4C)nc2c1C(=O)O (some centres undefined),"inconclusive: 2.91 µM [cytotoxic, full curve]",–
COc1ccc2c(c1OC)C(=O)O[C@H]2[C@@H]1c2cc3c(cc2CCN1C)OCO3,inactive,–
CC(C)=CC1C(C(=O)OCN2C(=O)C3=C(CCCC3)C2=O)C1(C)C (centres undefined),inactive,–
C[C@]12CC[C@H](OC3OC(CO)C(O)C(O)C3OC3OC(CO)C(O)C(O)C3O)C[C@@H]1CC[C@@H]1C2CC[C@]2(C)[C@@H](C3=CC(=O)OC3)CC[C@]12O (some centres undefined),"inconclusive: 6.11 µM [cytotoxic, single point]",–
C=C(C)[C@@H]1[C@H]2OC(=O)[C@H]1[C@]1(O)C[C@H]3O[C@]34C(=O)O[C@H]2[C@]14C,inactive,–
O=C(O)COc1ccccc1,inactive,–
C[C@@H]1C(=O)O[C@H]2[C@H](O)[C@@]34[C@@H]5OC(=O)[C@@]3(O[C@@H]3OC(=O)[C@@H](O)[C@@]34[C@H](C(C)(C)C)[C@H]5O)[C@@]12O,inactive,–
CC(CC(C(N)=O)(c1ccccc1)c1ccccc1)N(C)C (centres undefined),inactive,–
C[C@@H](CN1CCC(n2c(=O)[nH]c3cc(Br)ccc32)CC1)NC(=O)[C@@H]1C[C@H]1c1ccccc1,"inconclusive: 7.31 µM [cytotoxic, partial curve]",–
C/C=C1/CN2CC[C@]34C(=Nc5ccccc53)[C@@H]2C[C@@H]1[C@H]4C(=O)OC,"inconclusive: 14.3 µM [cytotoxic, partial curve]",–
CCC1(CC)C(=O)C=CNC1=O,inactive,–
Nc1ccn(C[C@@H](CO)OCP(=O)(O)O)c(=O)n1,–,inactive: 57.6% [at 9.25 µM]
CN(C(=O)C(c1ccccc1)c1ccccc1)[C@H](CN1CC[C@H](O)C1)c1ccccc1,"inconclusive: 16.4 µM [cytotoxic, partial curve, poor fit]",–
CN(C(=O)CN1C(=O)COc2cc(Cl)c(Cl)cc21)[C@@H](CN1CCCC1)c1ccc(-c2cccc(C(N)=O)c2)cc1,"inconclusive: 6.51 µM [cytotoxic, full curve, poor fit]",–
CC[C@@H](C(N)=O)N1CCCC1=O,inactive,–
Cc1sc2c(c1C)C(c1ccc(Cl)cc1)=NC(CC(=O)OC(C)(C)C)c1nnc(C)n1-2 (centres undefined),"inconclusive: 0.146 µM [cytotoxic, full curve]",–
CCC1(O)CCC2C3CCC4=CC(=O)CCC4C3CCC21CC (centres undefined),"inconclusive: 18.4 µM [cytotoxic, partial curve]",–
Oc1ccc2c(c1)C13CCCC[C@H]1[C@@H](C2)N(CC1CCC1)CC3,"inconclusive: 5.8 µM [cytotoxic, partial curve, poor fit]",–
CC1=C[C@H]2O[C@@H]3C[C@H]4OC(=O)/C=C/C=C/C(=O)OCC/C(C)=C/C(=O)OC[C@@]2(CC1)[C@]4(C)[C@]31CO1,"inconclusive: 0.0036 µM [cytotoxic, full curve]",–
CC(=O)O[C@H]1C(=O)[C@]2(C)C(O)C[C@H]3OC[C@@]3(OC(C)=O)[C@H]2[C@H](OC(=O)c2ccccc2)[C@]2(O)C[C@H](O)C(C)=C1C2(C)C (some centres undefined),"inconclusive: 6.85 µM [cytotoxic, single point]",–

Compound,Potency,viability (% of control)
Fc1cc(F)c2c(c1)C1C=CCC1C(c1cccnc1)N2 (centres undefined),active: 3.66 µM,–
C[C@@H]1Cc2c(Cl)cc(C(=O)N[C@@H](Cc3ccccc3)C(=O)O)c(O)c2C(=O)O1,active: 0.718 µM,–
CCCCC1C(=O)NC(=O)N(C2CCCCC2)C1=O (centres undefined),inactive,–
C=C1C(=O)CC2OC2(C)CC2OC(=O)C(=C)C2C(O)C1OC(=O)/C(C)=C\C (centres undefined),active: 0.508 µM,–
C[C@@H]1C[C@@H](O)[C@]2(O)O[C@@H]3C[C@@]4(C=O)C(CC[C@@H]5C4CC[C@]4(C)[C@@H](C6=CC(=O)OC6)CC[C@]54O)C[C@H]3O[C@@H]2O1 (some centres undefined),"inconclusive: 0.0502 µM [cytotoxic, full curve, poor fit]",–
CC[C@@H]1/C=C/C=C/C[C@H](C)C(O)[C@](C)(O)C(=O)[C@H](C)C(O)[C@H](C)C(=O)[C@H](C)[C@@H](O)[C@H](C)/C=C/C(=O)O[C@H]2[C@@H](C)[C@@H](CC1)O[C@]1(O[C@H](C[C@H](C)O)[C@H](C)CC1=O)[C@@H]2C (some centres undefined),"inconclusive: 0.031 µM [cytotoxic, full curve]",–
CN(C(=O)Cc1ccccc1)C(CN1CCCC1)c1ccccc1 (centres undefined),"inconclusive: 25.9 µM [cytotoxic, single point]",–
C[C@H]1CNCCc2ccc(Cl)cc21,"inconclusive: 13.3 µM [cytotoxic, partial curve, poor fit]",–
O=C(O)c1ccc2[nH]cc(CCCCN3CC=C(c4ccccc4)CC3)c2c1,active: 9.44 µM,–
COC1CC(=O)C23C(=O)NC(CC(C)C)C2C(C)=C(C)C(OO)C3/C=C(\C)CCC(O)C1O (centres undefined),"inconclusive: 12.6 µM [cytotoxic, single point]",–
CC(=O)O[C@H]1CC[C@H]2[C@@H]3CC[C@H]4CC(=O)C=C(C)[C@]4(C)[C@H]3CC[C@]12C,"inconclusive: 16.4 µM [cytotoxic, single point]",–
COC(=O)CC1CC2(C(=O)c3c(O)cccc3C2(O)C(=O)OC)C(C)O1 (centres undefined),"inconclusive: 12.8 µM [cytotoxic, single point]",–
CC/C=C/C=C/C1(C)OC(OC)=C(C(=O)C2C(C)C(=O)c3cc(OC)c(O)c(O)c3C2(C)O)C1=O (centres undefined),active: 10 µM,–
CCCCOC(=O)c1ccccc1C(=O)OCc1ccccc1,"inconclusive: 19.3 µM [cytotoxic, partial curve]",–
CC(=O)OC12C(O)C(C)C3(O)C4C=C(C)C(=O)C4CC(CO)=CC3C1C2(C)C (centres undefined),inactive,–
CC[C@@H](C)[C@H]1C(=O)O[C@H](C(C)C)C(=O)N(C)[C@@H]([C@@H](C)CC)C(=O)O[C@H](C(C)C)C(=O)N(C)[C@@H]([C@H](C)CC)C(=O)O[C@H](C(C)C)C(=O)N1C,active: 1.22 µM,–
CC(O)CN1CCN(CC(=O)[O-])CCN(CC(=O)[O-])CCN(CC(=O)[O-])CC1.[Gd+3] (centres undefined),inactive,–
NCC(CC(=O)O)c1ccc(Cl)cc1 (centres undefined),–,inactive: 90.7% [at 0.588 µM]
CO[C@H]1C[C@H](O[C@H]2CC[C@]3(C=O)[C@H]4CC[C@]5(C)[C@@H](C6=CC(=O)OC6)CC[C@]5(O)[C@@H]4CC[C@]3(O)C2)O[C@H](C)[C@H]1O,active: 0.0632 µM,–
